Among all 310,000 compounds or so, about 2,200 (0.71%) showed an effect of 50% or more. The effect is printed as a negative number. The list shows a part of the results.

In the assay the target is human ether-à-go-go-related gene (hERG) potassium channel (human, UniProt Q12809). The assay can be described thus: primary screen, population patch clamp on CHO cells stably expressing hERG.
Chain of human ether-à-go-go-related gene (hERG) potassium channel (Q12809 whole entry, looked up): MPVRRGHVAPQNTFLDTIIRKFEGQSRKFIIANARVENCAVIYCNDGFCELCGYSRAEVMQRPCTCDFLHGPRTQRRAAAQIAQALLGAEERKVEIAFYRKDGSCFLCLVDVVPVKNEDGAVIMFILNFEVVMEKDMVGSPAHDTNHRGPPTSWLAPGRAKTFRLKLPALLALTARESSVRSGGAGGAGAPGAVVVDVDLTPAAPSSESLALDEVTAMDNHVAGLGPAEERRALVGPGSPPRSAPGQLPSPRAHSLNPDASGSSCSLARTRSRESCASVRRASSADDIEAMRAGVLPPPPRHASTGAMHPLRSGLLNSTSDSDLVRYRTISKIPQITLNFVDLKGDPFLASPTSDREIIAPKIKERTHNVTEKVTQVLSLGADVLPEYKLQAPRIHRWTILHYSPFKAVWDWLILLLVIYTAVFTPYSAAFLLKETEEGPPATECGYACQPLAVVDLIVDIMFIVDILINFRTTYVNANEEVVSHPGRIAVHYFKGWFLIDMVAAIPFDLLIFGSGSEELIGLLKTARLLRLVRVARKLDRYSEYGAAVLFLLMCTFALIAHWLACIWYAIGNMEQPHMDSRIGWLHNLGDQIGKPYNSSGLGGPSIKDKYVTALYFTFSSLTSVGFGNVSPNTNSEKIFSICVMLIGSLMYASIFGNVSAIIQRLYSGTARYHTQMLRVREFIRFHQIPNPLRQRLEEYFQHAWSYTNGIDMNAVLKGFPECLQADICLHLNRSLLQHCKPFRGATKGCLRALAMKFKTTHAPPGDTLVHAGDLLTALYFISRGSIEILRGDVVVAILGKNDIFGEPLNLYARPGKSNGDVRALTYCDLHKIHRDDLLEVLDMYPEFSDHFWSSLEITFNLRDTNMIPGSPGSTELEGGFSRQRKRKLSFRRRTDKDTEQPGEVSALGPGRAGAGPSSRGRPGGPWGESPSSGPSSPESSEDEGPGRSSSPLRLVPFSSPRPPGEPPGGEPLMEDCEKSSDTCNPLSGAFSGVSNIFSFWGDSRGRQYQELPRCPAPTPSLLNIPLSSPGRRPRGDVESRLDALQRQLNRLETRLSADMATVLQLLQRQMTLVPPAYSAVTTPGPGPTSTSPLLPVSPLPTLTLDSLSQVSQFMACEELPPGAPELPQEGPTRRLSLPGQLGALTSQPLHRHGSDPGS
Regarding `CN1CCN(C(=O)c2ccc3c(c2)S(=O)(=O)c2ccccc2C3=O)CC1`, the “hERG current change (%, negative = inhibition) at 1uM” value came to 0.519%.

Regarding `CCCCn1c(N)c(N(CCOC)C(=O)c2cccc(S(=O)(=O)N3CCCCCC3)c2)c(=O)[nH]c1=O`, the “hERG current change (%, negative = inhibition) at 1uM” value was 12.4%.

On to `C/C(=N\Nc1ccc(S(N)(=O)=O)cc1[N+](=O)[O-])c1ccccc1O`, for which the “hERG current change (%, negative = inhibition) at 1uM” value is listed as 0.874%.

As to `O=C(COC(=O)c1ccc2ncsc2c1)Nc1ccc(Cl)cc1`, the “hERG current change (%, negative = inhibition) at 1uM” value was found to be 11.9%.

Regarding `COc1ccc(C(=O)CCC(=O)Nc2cc(Cl)c(O)c(Cl)c2)cc1`, the “hERG current change (%, negative = inhibition) at 1uM” value is 17.7%.

With `CCc1ccc(Oc2coc3cc(OC(=O)c4cc5ccccc5oc4=O)ccc3c2=O)cc1`, the “hERG current change (%, negative = inhibition) at 1uM” value is given as -9.78%.

With `CCOC(=O)C(=O)Nc1nnc(COc2ccccc2)s1`, the “hERG current change (%, negative = inhibition) at 1uM” value came to 1.26%.

For the molecule `Br.CCN(CC)CCn1c(=N)n(CC(=O)c2ccc(C)cc2)c2ccccc21`, the “hERG current change (%, negative = inhibition) at 1uM” value is listed as 4.52%.

Take `CCOCC(=O)Nc1cccc(Br)c1`: the “hERG current change (%, negative = inhibition) at 1uM” value worked out at 2.52%.

As to `CCNC(=S)NCc1ccc2c(c1)OCO2`, the “hERG current change (%, negative = inhibition) at 1uM” value was found to be 1.45%.

Turning to `COc1ccccc1N1C(=O)CCC1(C#N)c1ccccc1` (centres unmarked), the “hERG current change (%, negative = inhibition) at 1uM” value was -8.84%.

Regarding `CCNC(=O)COC(=O)c1cc(C)n(-c2ccccc2)c1C`, the “hERG current change (%, negative = inhibition) at 1uM” value was found to be 5.89%.

As for `COc1cccc(NC(=O)CN(C)C(=O)c2ccc(COc3ccccc3)o2)c1`, the “hERG current change (%, negative = inhibition) at 1uM” value stood at 10.4%.

On to `CN1[C@@H]2CC[C@H]1CC(OC(=O)c1c[nH]c3ccccc13)C2.Cl` (some centres unmarked), for which the “hERG current change (%, negative = inhibition) at 1uM” value is recorded as -17.4%.

Turning to `CC(=O)N1CCOc2ccc(S(=O)(=O)N3CCN(c4cc(C)ccc4C)CC3)cc21`, the “hERG current change (%, negative = inhibition) at 1uM” value was 10.1%.

Consider `O=C(CN=C1NS(=O)(=O)c2ccccc21)OCC(=O)c1cc(F)ccc1F`, for which the “hERG current change (%, negative = inhibition) at 1uM” value amounted to 13.3%.

For the molecule `Fc1ccccc1OCCCCCCN1CCCC1`, the “hERG current change (%, negative = inhibition) at 1uM” value is listed as -26.1%.

As for `CC(C)CCSc1nnc(N)s1`, the “hERG current change (%, negative = inhibition) at 1uM” value is given as 10.2%.

Take `Cn1c(C(=O)c2ccccc2)nc2ccccc21`: the “hERG current change (%, negative = inhibition) at 1uM” value is 3.63%.

For the molecule `Cc1ccc2c(c1)COc1c3ccc(C(=O)N[C@@H](C)CO)cc3nn1-2`, the “hERG current change (%, negative = inhibition) at 1uM” value was 15.9%.

For the molecule `CN(C(=O)c1cc(COc2c(F)cccc2F)on1)C1CCOC1` (centres unmarked), the “hERG current change (%, negative = inhibition) at 1uM” value is reported as -2.14%.

Regarding `Cc1ccc(-n2nc(C)c3c(=O)[nH]c(C(F)(F)F)nc32)cc1`, the “hERG current change (%, negative = inhibition) at 1uM” value is -1.46%.

As to `O=C(COC(=O)COc1ccccc1[N+](=O)[O-])Nc1ccccc1Br`, the “hERG current change (%, negative = inhibition) at 1uM” value is 7.41%.

Turning to `Cc1ccc2sc(-c3ccc(NC(=O)CCN4C(=O)c5ccccc5C4=O)cc3)nc2c1`, the “hERG current change (%, negative = inhibition) at 1uM” value stood at 11.4%.

As to `Cc1onc(-c2cccc(Cl)c2Cl)c1C(=O)O/N=C(\N)c1ccc([N+](=O)[O-])o1`, the “hERG current change (%, negative = inhibition) at 1uM” value was -0.409%.

For `COc1ccc(SC[C@H](Cc2ccccc2)N2CC[C@@H](C)CCC2=O)cc1`, the “hERG current change (%, negative = inhibition) at 1uM” value was determined as 7.28%.

`CCC(=O)Nc1ccc(F)c(Cl)c1`: the “hERG current change (%, negative = inhibition) at 1uM” value is recorded as 15%.

As to `Cc1nc2ccc(S(=O)(=O)N(C)CC(=O)N3CCc4ccccc4C3)cc2s1`, the “hERG current change (%, negative = inhibition) at 1uM” value is listed as -6.59%.

For the molecule `CCCCC(CC)CNC(=O)C(=O)c1ccccc1NC(C)=O` (centres unmarked), the “hERG current change (%, negative = inhibition) at 1uM” value was determined as 10.9%.

Take `Cc1cc2cc(CCNC(=O)CCCc3ccccc3)c(=O)[nH]c2cc1C`: the “hERG current change (%, negative = inhibition) at 1uM” value was determined as 19.1%.

`COc1ccc(CNC(=O)CN(c2cc(C)cc(C)c2)S(=O)(=O)c2c(C)[nH]c(=O)[nH]c2=O)cc1`: the “hERG current change (%, negative = inhibition) at 1uM” value was found to be 19.2%.

Consider `CN1C(=O)S/C(=C/c2cccnc2)C1=O`, for which the “hERG current change (%, negative = inhibition) at 1uM” value was -5.79%.

Regarding `O=C(Nc1ccc(C(=O)N2CCOCC2)cc1)Nc1ccc(Cl)cc1Cl`, the “hERG current change (%, negative = inhibition) at 1uM” value turned out to be 2.33%.

For `CC(=O)c1cccc(NC(=O)C(C)OC(=O)CCC2CCCCC2)c1` (centres unmarked), the “hERG current change (%, negative = inhibition) at 1uM” value is 8.04%.

With `CCCOC(=O)c1c(NC(=O)c2cnn3c2NC(c2ccccc2)CC3C(F)(F)F)sc2c1CCCC2` (centres unmarked), the “hERG current change (%, negative = inhibition) at 1uM” value is listed as 0.31%.

As to `O=C(CCc1ccccc1)Nc1ccc(NC(=O)C2CC2)nc1`, the “hERG current change (%, negative = inhibition) at 1uM” value is recorded as -0.478%.

For the molecule `CCCC(=O)Nc1ccccc1-c1nnc(SCC)[nH]c1=O`, the “hERG current change (%, negative = inhibition) at 1uM” value stood at 13%.

As to `N#CCc1nc(-c2cc3ccccc3oc2=O)cs1`, the “hERG current change (%, negative = inhibition) at 1uM” value turned out to be 6.48%.

Take `Cc1ccc(NC(=O)NC2CCCCCCC2)c(C)c1`: the “hERG current change (%, negative = inhibition) at 1uM” value came out at 9.81%.

With `CCn1ccnc1CNC(=O)C1CCC(=O)N(Cc2cccc(C(F)(F)F)c2)C1` (centres unmarked), the “hERG current change (%, negative = inhibition) at 1uM” value amounted to 1.22%.

As to `O=c1oc(-c2cccs2)nc2scc(-c3cccs3)c12`, the “hERG current change (%, negative = inhibition) at 1uM” value is on record as 9.84%.

As for `NC(=O)Nc1ccc(C(=O)OCC(=O)Nc2cccc(S(=O)(=O)NC3=NCCCCC3)c2)cc1`, the “hERG current change (%, negative = inhibition) at 1uM” value stood at 5.45%.

Take `O=[N+]([O-])c1ccc(O)c(CN2CCCCCC2)c1`: the “hERG current change (%, negative = inhibition) at 1uM” value amounted to 18%.

For the molecule `COc1ccc(N2CCN(CCCN)CC2)cc1`, the “hERG current change (%, negative = inhibition) at 1uM” value came out at 9.68%.

(Values after article PMC4336329 (PLoS ONE, 2015).)
